Laboratory results: PubChem BioAssay AID1508624 (National Center for Advancing Translational Sciences (NCATS), 2021)
The campaign covered roughly 48,000 compounds. About 120 (0.25%) were called active. Inconclusive results, whose numbers are uncertain, are shown with a selection of clear calls. Calls come from the whole dose curve; as a rule, active = well fitted activation curve with a large enough effect; inconclusive = small, poorly fitted or top-dose-only effect, or another doubt; inactive = no such curve, though single readings can be large or run the other way. Potencies of inconclusive entries are doubtful fits and often do not repeat.

Test: Primary qHTS for Identification of Small Molecule Activators of Huntingtin-Antisense Promoter Activity; note: nearly all actives have a fitted effect of over 55% in size
Conditions: HEK293 HTT-AS promoter firefly luciferase reporter, 24 h; activity change, positive = activation: at 57.5 µM (top of the series), percent change from vehicle, -100% = no light unless noted
Procedure, shortened: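 Firefly luciferase signal from promoter-reporter HEK293 cells was scaled between vehicle (0%) and zero RLU (-100%). Compounds were tested at final concentrations of up to 57.5 uM over 24 h at 37 degrees C. PTC124 at 50 uM final served as control inhibitor.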
Potency is the fitted concentration of half-maximal effect; tags give direction and shape of the fitted curve.

Compound	activity change, positive = activation	Potency
O=C(Nc1ccc(C(F)(F)F)cc1)C1CCC(CNS(=O)(=O)c2cccc3nsnc23)CC1 (stereo not drawn)	inactive: -18.9%	–
CCOc1ccc(CNC(=O)C2CCCN(c3nc4c(C)cc(C)cc4s3)C2)cc1 (stereo not drawn)	–	inconclusive: 2.24 µM [activator, partial curve, poor fit]
CC1CCCN(c2csc3ccc(F)cc3c2=O)C1 (stereo not drawn)	–	inconclusive: 11.2 µM [activator, partial curve]
Cc1ccc(NC(=O)c2c(Nc3ccccc3C)sc(C(=O)c3ccccc3)c2N)cc1	inactive: -17.1%	–
Cc1ccc(NC(=O)c2sc3ccccc3c2Cl)cc1	–	inconclusive: 1 µM [activator, full curve]
O=C(Nc1cccc(C(=O)N2CCCCC2)c1)c1nsc2ccccc12	–	inconclusive: 1.26 µM [activator, partial curve, poor fit]
Cn1c(=O)n(C)c2cc(NS(=O)(=O)c3ccccc3)c(NCc3ccccc3)cc21	–	inconclusive: 14.1 µM [activator, single point]
Cc1ccc(NCc2cccn2-c2nnc(N3CCC(C(=O)NCc4ccc(OC(C)C)cc4)CC3)s2)cc1	inactive: -43.5%	–
CCOc1ccc2c(c1)c(=O)c(S(=O)(=O)c1ccc(Cl)cc1)cn2Cc1ccccc1C	inconclusive: 20.7% [activator]	–
Cc1ccccc1-c1nc(SCC(=O)N(C)c2ccccc2)c2c(=O)n(C)c(=O)n(C)c2n1	–	inconclusive: 22.4 µM [activator, partial curve, poor fit]
Cc1ccc(C2CCN(C(=O)Nc3ccc(C)c(C)c3)C2)cc1 (stereo not drawn)	–	inconclusive: 14.1 µM [activator, partial curve, poor fit]
COc1ccc(NC(=O)C(=O)NCc2ccco2)cc1	–	inconclusive: 12.6 µM [activator, partial curve]
Cc1ccc(OCC(O)Cn2c(=N)n(CCN3CCCCC3)c3ccccc32)cc1 (stereo not drawn)	inactive: -22.8%	–
Cc1c2oc3c(C)ccc(C(=O)NC4C(=O)NC(C(C)C)C(=O)N5CCCC5C(=O)N(C)CC(=O)N(C)C(C(C)C)C(=O)OC4C)c3nc-2c(C(=O)NC2C(=O)NC(C(C)C)C(=O)N3CCCC3C(=O)N(C)CC(=O)N(C)C(C(C)C)C(=O)OC2C)c(N)c1=O (stereo not drawn)	inconclusive: -46.9% [activator]	–
CCOc1cc2sc(N3CCC(C(=O)Nc4ccc(C)cc4C)CC3)nc2cc1Br	–	inconclusive: 3.55 µM [activator, full curve]
CCN1CCc2nc3sc(C(=O)Nc4cccc(Cl)c4C)c(N)c3cc2C1	inactive: -32.3%	–
COc1cccc(NC(=O)c2csnn2)c1	–	inconclusive: 15.8 µM [activator, partial curve]
COc1ccc(NC(=O)c2cc3cc(C)ccc3[nH]2)cc1	–	inconclusive: 8.91 µM [activator, partial curve]
CSc1ccccc1-c1nnc(NC(=O)c2ccc3c(c2)OCCO3)o1	inactive: 23.7%	–
CCCCCc1ccc(-c2ccc(Br)cc2)nc1	–	inconclusive: 10 µM [activator, partial curve, poor fit]
O=C(Nc1ccc(OC(F)(F)F)cc1)c1sccc1NCc1ccnc2ccccc12	–	inconclusive: 0.611 µM [activator, full curve]
Cc1ccc2nc(SCc3nc(-c4ccc(Cl)cc4)no3)[nH]c2c1	inactive: -25.8%	–

Compound	activity change, positive = activation	Potency
Cc1ccc(C(=O)COC(=O)CCC(=O)Nc2ccc(Oc3ccccc3)cc2)cc1	–	inconclusive: 31.6 µM [activator, single point]
CN1CCN(C(=O)c2ccc3c(c2)N(Cc2ccc(C(F)(F)F)cc2)C(=O)c2ccccc2S3)CC1	inactive: -20.4%	–
Cc1ccc(C(=O)C(=O)O)cc1C	inactive: -0.348%	–
COc1ccc(CNC(=O)Cn2cccc2C(=O)c2ccccc2C)cc1	–	inconclusive: 10 µM [activator, partial curve]
Cc1cccc(NC(=O)c2c(NC(=O)c3ccccc3)sc3c2CCC3)c1	inactive: 18.2%	–
CNc1ccc(-c2nc(-c3ccncc3)no2)cc1[N+](=O)[O-]	–	inconclusive: 1.58 µM [activator, full curve, poor fit]
Cc1ccc(C)c(NC(=O)c2nc(S(=O)(=O)Cc3ccc(F)cc3)ncc2Cl)c1	inactive: -86%	–
O=C(CCCCCCNC(=O)c1cnc(N(c2ccccc2)c2ccccc2)nc1)NO	–	inconclusive: 30.6 µM [activator, single point]
Cn1ccnc1SCC(=O)Nc1cccc(Br)c1	–	inconclusive: 25.1 µM [activator, single point]
Cc1cc(C)cc(NC(=O)COc2cccc3c(=O)n(C)ccc23)c1	inactive: -18.7%	–
CCCCSc1nnc2c(n1)OC(c1ccc(Br)s1)Nc1ccccc1-2 (stereo not drawn)	–	inconclusive: 11.2 µM [activator, partial curve, poor fit]
COc1ccc2cc1Oc1cc3c(cc1OC)CC[N+](C)(C)[C@H]3Cc1ccc(cc1)Oc1c(OC)c(OC)cc3c1[C@@H](C2)[N+](C)(C)CC3	inactive: -3.93%	–
Cc1ccc(-n2c(C)cc(/C=C(\C#N)C(=O)Nc3ccc(C)c(C)c3)c2C)cc1	inactive: -8.84%	–
N#Cc1ccccc1CSc1nnc(-c2ccc(Br)cc2)o1	–	inconclusive: 0.891 µM [activator, full curve, poor fit]
O=C1CSC2(C(=O)N(Cc3cccc(C(F)(F)F)c3)c3ccccc32)N1c1ccc(F)c(F)c1 (stereo not drawn)	inconclusive: -84.4% [activator]	–
CCn1ccc(NS(=O)(=O)c2ccc(N)cc2)nc1=O	inactive: -4.76%	–
CCOC(=O)Cc1ccc(NC(=O)NCc2c(-n3cccc3)sc3c2CCCC3)cc1	inconclusive: 38.9% [activator]	–
Cc1ccc(-n2c(C)cc(C(=O)C(=O)Nc3ccccc3)c2C)c(C)c1	–	inconclusive: 2.24 µM [activator, partial curve, poor fit]
O=C(/C=C/c1ccccc1)Nc1cc(-c2nc3cc(Cl)ccc3o2)ccc1Cl	–	inconclusive: 25.1 µM [activator, partial curve, poor fit]
Cc1ccccc1OCC(=O)Nc1ccc(-c2nc3ccccc3o2)cc1	–	inconclusive: 1.78 µM [activator, full curve]
COc1ccc(NC(=O)Cn2nnc(C(=O)NCc3cccs3)c2N)cc1	inactive: -10.4%	–
